Experimental data taken from the antibiotic and cytotoxicity screens of Wong et al. (2023).
Some of the results follow.

Experiments:
HSkMC = human skeletal muscle cells; experiment: cytotoxicity call (relative viability < 0.9); settings: 10 µM
HepG2 = experiment: cytotoxicity call (relative viability < 0.9); settings: 10 µM
S. aureus RN4220 = experiment: growth inhibition call (relative growth <= 0.2); settings: 50 µM

SMILES	cytotoxicity call (HSkMC)	cytotoxicity call (HepG2)	growth inhibition call (S. aureus RN4220)
COc1ccc(NC(=O)N(C)C[C@@H]2OCCCC[C@@H](C)Oc3ccc(NS(=O)(=O)c4ccc(C)cc4)cc3C(=O)N([C@@H](C)CO)C[C@H]2C)cc1	inactive	inactive	inactive
C[C@H](CO)N1C[C@H](C)[C@@H](CN(C)Cc2ccc(Cl)c(Cl)c2)OCCCC[C@H](C)Oc2ccc(N(C)C)cc2C1=O	inactive	inactive	inactive
Cc1noc(C)c1S(=O)(=O)N(C)C[C@H]1Oc2ccc(NC(=O)Cc3cn(C)c4ccccc34)cc2CC(=O)N([C@H](C)CO)C[C@@H]1C	inactive	inactive	inactive
C[C@H]1CCCCO[C@H](CN(C)S(=O)(=O)c2cn(C)cn2)[C@@H](C)CN([C@@H](C)CO)C(=O)c2cc(NS(=O)(=O)c3ccccc3)ccc2O1	inactive	inactive	inactive
C[C@@H]1CCCCO[C@H](CN(C)C(=O)C2CCCCC2)[C@H](C)CN([C@H](C)CO)C(=O)c2cc(NC(=O)Nc3cccc4ccccc34)ccc2O1	inactive	inactive	inactive
C[C@@H]1CN([C@H](C)CO)C(=O)c2cc(NC(=O)Nc3ccccc3)ccc2O[C@@H](C)CCCCO[C@@H]1CN(C)Cc1ccccc1	inactive	active	inactive
CCOC(=O)Cn1cc(F)c(=O)[nH]c1=O	inactive	inactive	inactive
CCC(C)C(N)C(=O)O (stereo not given)	inactive	inactive	inactive
COc1cccc(NC(=O)N2C[C@@H](O)COC[C@@H]3O[C@@H](CC(=O)NCc4ccccc4F)CC[C@H]32)c1	inactive	inactive	inactive
O=C(Nc1ccc(C(F)(F)F)cc1)Nc1ccc2c(c1)[C@@H]1C[C@@H](CC(=O)N3CCc4ccccc4C3)O[C@H](CO)[C@@H]1O2	inactive	active	inactive
CO[C@@H](C(=O)N(C)C[C@H]1OCc2ccccc2-c2c(n(C)c3ccccc23)C(=O)N([C@@H](C)CO)C[C@@H]1C)c1ccccc1	inactive	inactive	inactive
Cc1noc(C)c1NC(=O)N(C)C[C@H]1Oc2ccc(NC(=O)Nc3cccc4ccccc34)cc2C(=O)N([C@@H](C)CO)C[C@@H]1C	inactive	inactive	inactive
O=C(C[C@@H]1C[C@@H]2c3cc(NS(=O)(=O)c4ccc(F)cc4)ccc3O[C@@H]2[C@H](CO)O1)NC1CCCCC1	inactive	inactive	inactive
CC(C)C#Cc1ccc2c(c1)O[C@@H](CN(C)S(=O)(=O)c1cn(C)cn1)[C@H](C)CN([C@@H](C)CO)S2(=O)=O	inactive	inactive	inactive
C=C1CCC2C(C)(CO)C(O)CCC2(C)C1CC=C1C(=O)OCC1O (stereo not given)	inactive	active	inactive
C[C@@H]1CCCCO[C@@H](CN(C)C(=O)CCC(F)(F)F)[C@H](C)CN([C@@H](C)CO)C(=O)c2cc(NC(=O)Cc3ccccc3)ccc2O1	inactive	inactive	inactive
C[C@@H]1CCCCO[C@H](CN(C)C(=O)c2ccccc2)[C@H](C)CN([C@H](C)CO)C(=O)c2cc(NS(=O)(=O)c3ccc(Cl)cc3)ccc2O1	inactive	inactive	inactive
C[C@@H]1CCCCO[C@H](CN(C)C(=O)Nc2ccc(F)cc2)[C@@H](C)CN([C@H](C)CO)C(=O)c2cc(NS(=O)(=O)c3ccc(F)cc3)ccc2O1	inactive	inactive	inactive
O=C(NCCN1CCCC1)[C@H]1[C@H](CO)[C@H]2Cn3c(cccc3=O)[C@H]2N1C(=O)c1ccccc1	inactive	inactive	inactive
C[C@H](CO)N1C[C@H](C)[C@@H](CN(C)C(=O)Nc2ccc(C(F)(F)F)cc2)Oc2ccc(NC(=O)C3CCCCC3)cc2C1=O	inactive	inactive	inactive
C[C@H](CO)N1C[C@H](C)[C@@H](CN(C)Cc2ccc(C(=O)O)cc2)OCCCC[C@H](C)Oc2ccc(NC(=O)Nc3ccc4c(c3)OCO4)cc2C1=O	inactive	inactive	inactive
O=C(O)CCCCCCCC(O)C(O)CCCCCCO (stereo not given)	inactive	inactive	inactive
CN1CCN(C(=O)C[C@@H]2CC[C@H](NC(=O)c3ccc4c(c3)OCO4)[C@@H](CO)O2)CC1	inactive	inactive	inactive
C[C@@H]1CCCCO[C@@H](CN(C)C(=O)Nc2ccc3c(c2)OCO3)[C@@H](C)CN([C@H](C)CO)C(=O)c2cc(NC(=O)NC3CCCCC3)ccc2O1	inactive	inactive	inactive
C[C@H]1CCCCO[C@@H](CN(C)C)[C@@H](C)CN([C@@H](C)CO)C(=O)c2cc(NC(=O)Nc3ccc(C(F)(F)F)cc3)ccc2O1	inactive	active	inactive
